± gives the standard deviation of the averaged measurements. Growth of baker's yeast expressing single-residue variants of Pneumocystis jirovecii dihydrofolate reductase in 8.8 or 44 µM methotrexate (about 75% and 90% inhibition of the wild type). Selection coefficient per generation; 0 = like wild type, above 0 = less sensitive, below 0 = more sensitive or loss of function. No active / inactive call per row; the paper calls resistant above 0.220 (8.8 µM) or 0.243 (44 µM) together with a significance test. At 44 µM about 15% of codons end with one read or none, so the lowest values are floors (replicate rank correlation 0.74; 0.94 at 8.8 µM).
B1: UniProt A0EPZ9; numbered along this chain (parent)
chain: MDWQKSLTLIVALTLSRGIGLKNDLPWKLKSDMMFFSRVTSGLLVTRSTGQMNVVLMGRKTWESLPAHSRPLKNRINVVISRQEVLDLGGGAYHARSLDDALALLSQIYDSTSKIQLNRVFVIGGGELCKAAMEHSRLNRIIATVIHNEVDCDVFFPIDFRSSQSCLPWRKQDHSVLEAWVGSKVPQGKINENGFIYEFEMWIRDI

Variants of: B1
Assay: selection coefficient against synonymous wild-type codons (log2 per generation); higher = faster growth than wild type
Conditions: with Saccharomyces cerevisiae carrying the variant on a plasmid
Method: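 Pooled growth of yeast carrying single-residue variants of P. jirovecii dihydrofolate reductase (own DFR1 gene intact), two passages at 30 °C, three cultures, sequenced before and after. Codons with under 15 starting reads are left out; codons of one change are averaged.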

Row | Variant | selection coefficient against synonymous wild-type codons (log2) (methotrexate 8.8 µM) | selection coefficient against synonymous wild-type codons (log2) (methotrexate 44 µM)
1 | G194E | -0.0203 ± 0.055 | -0.063 ± 0.0026
2 | G194K | -0.158 ± 0.032 | -0.319 ± 0.14
3 | G194L | -0.503 ± 0.13 | -0.412 ± 0.14
4 | G194M | -0.427 ± 0.033 | -0.299 ± 0.2
5 | G194P | -0.0853 ± 0.082 | -0.284 ± 0.14
6 | G194Q | -0.117 ± 0.078 | -0.04 ± 0.053
7 | G194R | -0.253 ± 0.17 | -0.19 ± 0.087
8 | G194S | -0.171 ± 0.094 | -0.139 ± 0.18
9 | G194T | -0.246 ± 0.1 | -0.193 ± 0.035
10 | G194V | -0.336 ± 0.17 | -0.215 ± 0.26
11 | G194W | -0.535 ± 0.015 | -0.472 ± 0.15
12 | F195A | 0.272 ± 0.047 | 0.207 ± 0.071
13 | F195C | 0.14 ± 0.005 | 0.152 ± 0.011
14 | F195D | 0.237 ± 0.073 | 0.163 ± 0.1
15 | F195E | 0.309 ± 0.049 | 0.302 ± 0.047
16 | F195G | 0.269 ± 0.061 | 0.256 ± 0.052
17 | F195H | 0.2 ± 0.028 | 0.171 ± 0.12
18 | F195I | 0.0408 ± 0.03 | -0.0381 ± 0.092
19 | F195K | 0.244 ± 0.062 | 0.168 ± 0.062
20 | F195L | 0.000991 ± 0.048 | -0.061 ± 0.062
21 | F195M | 0.0486 ± 0.03 | -0.0229 ± 0.08
22 | F195N | 0.157 ± 0.092 | 0.112 ± 0.068
23 | F195P | 0.348 ± 0.057 | 0.375 ± 0.014
24 | F195Q | 0.254 ± 0.054 | 0.238 ± 0.048

Row | Variant | selection coefficient against synonymous wild-type codons (log2) (methotrexate 8.8 µM) | selection coefficient against synonymous wild-type codons (log2) (methotrexate 44 µM)
25 | F195R | 0.339 ± 0.04 | 0.341 ± 0.046
26 | F195S | 0.184 ± 0.077 | 0.138 ± 0.15
27 | F195T | 0.123 ± 0.11 | 0.0563 ± 0.063
28 | F195V | 0.0872 ± 0.031 | 0.0323 ± 0.068
29 | F195W | -0.0542 ± 0.032 | 0.00884 ± 0.35
30 | F195Y | -0.0109 ± 0.02 | -0.0959 ± 0.097
31 | I196A | 0.0717 ± 0.044 | -0.0214 ± 0.097
32 | I196C | 0.102 ± 0.046 | 0.116 ± 0.04
33 | I196D | 0.178 ± 0.02 | 0.151 ± 0.031
34 | I196E | 0.191 ± 0.037 | 0.18 ± 0.048
35 | I196F | 0.21 ± 0.04 | 0.853 ± 0.077
36 | I196G | 0.0251 ± 0.06 | -0.014 ± 0.11
37 | I196K | 0.0903 ± 0.07 | 0.0381 ± 0.086
38 | I196L | -0.0327 ± 0.038 | 0.0582 ± 0.12
39 | I196M | -0.00528 ± 0.06 | -0.0477 ± 0.071
40 | I196N | 0.141 ± 0.02 | 0.173 ± 0.073
41 | I196P | 0.0972 ± 0.059 | 0.00476 ± 0.16
42 | I196Q | 0.103 ± 0.036 | 0.0239 ± 0.084
43 | I196R | 0.00358 ± 0.079 | 0.0353 ± 0.081
44 | I196S | 0.0976 ± 0.033 | 0.0602 ± 0.064
45 | I196T | 0.132 ± 0.047 | 0.0677 ± 0.072
46 | I196V | 0.0336 ± 0.024 | -0.0115 ± 0.038
47 | I196W | 0.188 ± 0.13 | 0.873 ± 0.069
48 | I196Y | -0.0705 ± 0.12 | -0.00647 ± 0.064

Row | Variant | selection coefficient against synonymous wild-type codons (log2) (methotrexate 8.8 µM) | selection coefficient against synonymous wild-type codons (log2) (methotrexate 44 µM)
49 | Y197A | -0.151 ± 0.086 | -0.14 ± 0.13
50 | Y197C | -0.145 ± 0.067 | -0.185 ± 0.011
51 | Y197D | -0.52 ± 0.046 | -0.336 ± 0.086
52 | Y197E | -0.0988 ± 0.057 | -0.297 ± 0.037
53 | Y197F | -0.159 ± 0.054 | -0.218 ± 0.037
54 | Y197G | 0.0107 ± 0.066 | -0.0688 ± 0.14
55 | Y197H | -0.185 ± 0.13 | -0.158 ± 0.14
56 | Y197I | -0.237 ± 0.041 | -0.282 ± 0.13
57 | Y197K | 0.704 ± 0.067 | 0.927 ± 0.043
58 | Y197L | -0.292 ± 0.072 | -0.208 ± 0.12
59 | Y197M | -0.187 ± 0.072 | -0.269 ± 0.023
60 | Y197N | -0.0201 ± 0.041 | -0.28 ± 0.04
61 | Y197P | -0.154 ± 0.13 | -0.152 ± 0.035
62 | Y197Q | -0.205 ± 0.1 | -0.214 ± 0.0094
63 | Y197R | 0.543 ± 0.049 | 0.668 ± 0.057
64 | Y197S | -0.139 ± 0.098 | -0.157 ± 0.1
65 | Y197T | -0.0803 ± 0.04 | -0.134 ± 0.2
66 | Y197V | -0.212 ± 0.072 | -0.295 ± 0.16
67 | Y197W | -0.0908 ± 0.056 | -0.185 ± 0.067
68 | E198A | -0.161 ± 0.058 | -0.209 ± 0.11
69 | E198C | -0.206 ± 0.059 | -0.246 ± 0.15
70 | E198D | 0.0487 ± 0.039 | 0.00516 ± 0.12
71 | E198F | -0.393 ± 0.076 | -0.513 ± 0.14
72 | E198G | -0.0183 ± 0.06 | -0.0536 ± 0.049

Row | Variant | selection coefficient against synonymous wild-type codons (log2) (methotrexate 8.8 µM) | selection coefficient against synonymous wild-type codons (log2) (methotrexate 44 µM)
73 | E198H | -0.0348 ± 0.073 | -0.118 ± 0.047
74 | E198I | -0.448 ± 0.093 | -0.332 ± 0.086
75 | E198K | -0.11 ± 0.062 | -0.404 ± 0.097
76 | E198L | -0.476 ± 0.11 | -0.302 ± 0.16
77 | E198M | -0.308 ± 0.0058 | -0.312 ± 0.17
78 | E198N | -0.0104 ± 0.036 | -0.226 ± 0.12
79 | E198P | -0.476 ± 0.069 | -0.113 ± 0.066
80 | E198Q | -0.131 ± 0.067 | -0.117 ± 0.024
81 | E198R | -0.139 ± 0.027 | -0.202 ± 0.1
82 | E198S | 0.0825 ± 0.044 | -0.0505 ± 0.15
83 | E198T | -0.0876 ± 0.12 | -0.206 ± 0.13
84 | E198V | -0.424 ± 0.059 | -0.386 ± 0.099
85 | E198W | -0.469 ± 0.038 | -0.414 ± 0.095
86 | E198Y | -0.302 ± 0.07 | -0.294 ± 0.13
87 | F199A | 0.531 ± 0.058 | 0.667 ± 0.042
88 | F199C | 0.335 ± 0.17 | 0.528 ± 0.1
89 | F199D | 0.476 ± 0.037 | 0.675 ± 0.016
90 | F199E | 0.425 ± 0.042 | 0.582 ± 0.026
91 | F199G | 0.372 ± 0.042 | 0.608 ± 0.058
92 | F199I | 0.197 ± 0.035 | 0.354 ± 0.016
93 | F199K | 1.02 ± 0.049 | 1.45 ± 0.051
94 | F199L | 0.223 ± 0.045 | 0.411 ± 0.1
95 | F199M | 0.258 ± 0.05 | 0.564 ± 0.061
96 | F199N | 0.536 ± 0.068 | 0.689 ± 0.063

Row | Variant | selection coefficient against synonymous wild-type codons (log2) (methotrexate 8.8 µM) | selection coefficient against synonymous wild-type codons (log2) (methotrexate 44 µM)
97 | F199P | 0.73 ± 0.042 | 1.01 ± 0.038
98 | F199Q | 0.774 ± 0.047 | 1.02 ± 0.038
99 | F199R | 1.11 ± 0.072 | 1.63 ± 0.057
100 | F199S | 0.683 ± 0.029 | 0.878 ± 0.049
101 | F199T | 0.717 ± 0.079 | 0.913 ± 0.09
102 | F199V | 0.426 ± 0.031 | 0.546 ± 0.047
103 | F199W | 0.859 ± 0.056 | 1.16 ± 0.025
104 | F199Y | 0.608 ± 0.048 | 0.924 ± 0.13
105 | E200C | 0.358 ± 0.048 | 0.318 ± 0.039
106 | E200D | 0.22 ± 0.064 | 0.18 ± 0.044
107 | E200F | 0.151 ± 0.074 | 0.175 ± 0.06
108 | E200G | 0.187 ± 0.055 | 0.104 ± 0.064
109 | E200H | 0.239 ± 0.017 | 0.232 ± 0.064
110 | E200I | 0.26 ± 0.038 | 0.237 ± 0.015
111 | E200K | 0.319 ± 0.045 | 0.323 ± 0.061
112 | E200L | 0.0799 ± 0.093 | 0.0321 ± 0.058
113 | E200M | 0.374 ± 0.045 | 0.378 ± 0.019
114 | E200N | 0.346 ± 0.062 | 0.338 ± 0.063
115 | E200P | -0.599 ± 0.064 | -0.23 ± 0.06
116 | E200Q | 0.242 ± 0.047 | 0.222 ± 0.089

Source: the supplement of paper PMC11125491
